# The supplement of paper PMC3334620
# Over roughly 33,000 sequences, “E-score (-0.5 to 0.5)” has its median near -0.041; the highest 2% begin near 0.37. This is one part of the list.
# Target: T1, Ecm22 (UniProt Q05958)
# T1 sequence: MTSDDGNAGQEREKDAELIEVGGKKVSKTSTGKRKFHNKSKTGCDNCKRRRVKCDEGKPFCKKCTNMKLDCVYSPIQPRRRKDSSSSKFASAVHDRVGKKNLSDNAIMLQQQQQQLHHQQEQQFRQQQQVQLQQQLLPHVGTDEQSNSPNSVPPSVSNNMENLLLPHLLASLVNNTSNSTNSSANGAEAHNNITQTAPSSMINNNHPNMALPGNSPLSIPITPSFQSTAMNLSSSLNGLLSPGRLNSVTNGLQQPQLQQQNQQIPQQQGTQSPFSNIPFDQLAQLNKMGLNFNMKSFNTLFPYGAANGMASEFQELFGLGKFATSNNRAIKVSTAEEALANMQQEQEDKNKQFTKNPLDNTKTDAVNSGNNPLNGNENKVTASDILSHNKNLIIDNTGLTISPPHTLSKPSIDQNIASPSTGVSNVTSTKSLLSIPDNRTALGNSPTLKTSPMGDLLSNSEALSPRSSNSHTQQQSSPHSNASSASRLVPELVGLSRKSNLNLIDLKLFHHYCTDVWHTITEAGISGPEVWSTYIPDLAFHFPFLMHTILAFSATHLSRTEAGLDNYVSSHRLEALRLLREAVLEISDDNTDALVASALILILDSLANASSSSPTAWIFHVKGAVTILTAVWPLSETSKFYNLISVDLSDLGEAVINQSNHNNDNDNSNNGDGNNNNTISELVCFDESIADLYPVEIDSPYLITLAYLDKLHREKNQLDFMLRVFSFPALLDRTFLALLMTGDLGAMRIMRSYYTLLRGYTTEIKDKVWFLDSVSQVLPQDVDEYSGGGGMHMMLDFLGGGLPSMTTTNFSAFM
# Assay: PBM E-score (8-mer binding enrichment) (E-score (-0.5 to 0.5)); higher = stronger / more preferred TF binding; most listed sequences are background and not binding sites
# Conditions: protein concentration: 200 nM; construct: GST-full length
# Summary of the method: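 GST-tagged yeast TFs (full-length or DNA-binding domain) were made by PURExpress in vitro transcription/translation and applied at about 100-200 nM to universal all-10-mer Agilent arrays. The arrays were made double-stranded by primer extension, on fresh or once-stripped slides. Bound protein was detected with fluorescent anti-GST, and scans were normalised with masliner. Each ungapped eight-base word, pooled with its reverse complement, received an E-score (modified Wilcoxon-Mann-Whitney statistic) from the Universal PBM Analysis Suite.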
row,Sequence,PBM E-score
1,GCATCCCA,-0.233
2,CATGGGGG,-0.375
3,TGCCGGCA,-0.275
4,CGCTTATC,0.127
5,ACAACCTC,-0.00434
6,ACCCGTAG,-0.142
7,CAGGGGCG,-0.185
8,ATCGCAAG,-0.113
9,CATTGCGG,-0.0533
10,CTGTGTGA,-0.0561
11,AACGACCT,0.385
12,TTCATGAA,-0.134
13,GCGTGTGA,-0.0669
14,ATTGCCGA,0.117
15,CTATATAG,0.0949
16,AGCCTGCA,-0.174
17,CCAATTTA,0.155
18,AGAATGGA,0.0528
19,CTTCCCCA,-0.271
20,CTAAAGTA,-0.0757
21,GGTGTACA,-0.0578
22,CCAGTAAC,-0.154
23,AACGCCTC,-0.198
24,TAAGCGTA,0.104
25,CGCGGTTC,0.306

row,Sequence,PBM E-score
1,AGGAGGCG,-0.229
2,GAGGCACA,-0.16
3,CCTCTTCC,-0.161
4,ACTTGTAC,0.183
5,GACGAACC,0.0132
6,ATGGTAGC,0.0235
7,AGGGGCTC,-0.156
8,GCCCAGTA,-0.284
9,TACCCTCA,-0.164
10,GTTACAAA,0.0318
11,AAGGTACC,-0.0364
12,CCAGCGCA,-0.234
13,AAAATCTT,-0.151
14,AGAGGGAG,-0.0784
15,ACAGTGAG,-0.197
16,ACCGGCAC,0.00786
17,CTTAGACC,-0.191
18,GCTCACTA,-0.166
19,CCTTCCAC,-0.152
20,AATTACCT,0.105
21,CTTAGCTC,-0.0151
22,GGGCATTA,-0.134
23,GTCGTTTA,0.491
24,CAGGAAGG,-0.357
25,CTTCCATA,-0.201

row,Sequence,PBM E-score
1,CAGGTAGA,-0.0317
2,ACCCCAGT,-0.0793
3,AGATGATG,-0.0193
4,GGCCGTTA,0.0322
5,GGGGGGCA,-0.219
6,TGACCCCA,-0.206
7,AGTTAACG,0.261
8,ACGGGCTG,0.061
9,GGCTAGCC,-0.146
10,TCGGTAGA,0.0315
11,CAGTCTAA,0.0425
12,ATTATTGC,0.109
13,CCGCCCGC,0.096
14,CCTTGTAA,0.0622
15,AAGCCTCG,0.139
16,GATCAGAC,-0.185
17,TAGATTAA,0.177
18,ACACTAAT,0.0687
19,CGGCTGTC,0.0324
20,CCCCTGTA,-0.133
21,AACAATCC,-0.0494
22,CAATCAAA,-0.0176
23,AGACTCTA,-0.00932
24,CCTTCGAA,-0.2
25,CGAGCGTC,0.196

row,Sequence,PBM E-score
1,CCCGGCTC,-0.118
2,ACGAATAC,0.26
3,AGTTGTGA,-0.0643
4,AATACGGC,0.268
5,GGAAACAA,0.0422
6,ACACCATG,-0.217
7,CCAAACAA,-0.0688
8,GCAGGAGC,-0.1
9,CACGTCGC,0.0933
10,ATCCACAA,-0.167
11,ATTCCTTC,-0.0434
12,GAGATATA,0.0889
13,CTATCGGC,-0.2
14,CGTTGTGC,0.116
15,AAGGCGAC,-0.111
16,ACGGCAGT,0.239
17,CAGCTGAC,-0.161
18,CACACTCG,0.188
19,CGGGGCGA,0.0991
20,AGTACGAT,0.407
21,CAGTAGGC,-0.0515
22,AACCCAAG,-0.132
23,GTTATATA,0.057
24,CCGCGCGA,0.117
25,TGTACGAA,0.48

row,Sequence,PBM E-score
1,ATCAACTC,0.0707
2,CTCGAGAC,0.102
3,AAGTTGCA,-0.0597
4,AAGCGGCA,0.0699
5,GAAGCAAA,-0.142
6,ACCAACTC,-0.0123
7,ACGCCAGT,0.0663
8,AGTCTAAA,-0.107
9,CTTATACC,0.028
10,CCAGAAAC,0.0195
11,GGGGCCCC,-0.277
12,CTTCCGAC,-0.0229
13,GTTTCGTA,0.44
14,CTTGTGGC,-0.239
15,ATTATAAT,0.139
16,GTACGTTA,0.343
17,ACCTCCGT,0.00722
18,CACTTAAC,0.0547
19,ACAATCAG,-0.0188
20,CACGGCAC,-0.106
21,GGGTCTTA,-0.247
22,TGCTTCAA,-0.27
23,ACATTCCA,-0.103
24,ATCCCAGA,-0.278
25,TCTATGAA,0.00491

row,Sequence,PBM E-score
1,CCAAAACA,-0.175
2,CCACAGAG,-0.00864
3,ACCTGCCA,-0.151
4,GGCTGCAA,-0.248
5,TGTGGTAA,-0.0312
6,AGTCACAT,-0.0411
7,TAATCGGA,0.16
8,ATCCTCGA,-0.0772
9,CTCACAAC,0.0387
10,CGTTAAGA,0.222
11,ACGGAAAA,0.175
12,CGCGAGAG,0.233
13,AACCGGAC,-0.0924
14,ATGGTCAC,-0.0259
15,ACCTCTCG,0.104
16,AGGCAGTG,-0.149
17,ATGTAGCG,0.0835
18,ATAGAGGA,-0.188
19,AGGCCGCC,-0.266
20,GAGATCCC,-0.109
21,ACCGGCCA,-0.0895
22,AATGGATC,-0.018
23,ACCTCAGA,-0.319
24,GAGATAAA,0.0228
25,AAACATCC,-0.0305

row,Sequence,PBM E-score
1,CTACACGA,0.315
2,AACATGAG,-0.126
3,ATGGCAAA,-0.136
4,AATGTATC,0.0552
5,AGAAGAAC,0.0485
6,CGCATGAA,0.178
7,CACACACA,-0.0219
8,AGGCACAT,-0.166
9,CCTGCGAA,0.00017
10,GCGTCGAA,0.0462
11,CAGCAGAA,0.0354
12,CCCATCCC,-0.215
13,CTAACTAG,-0.0303
14,AAAACCGA,0.298
15,AGCAGGGA,-0.269
16,ATTAATCA,0.0695
17,CCTGAAGA,0.0204
18,GAACGACC,0.451
19,TCATGACA,0.124
20,TCCCGTCA,-0.085
21,CTCCACAG,-0.248
22,CGCGATGA,0.126
